Values marked as one replicate rest on one cluster of the flow cell; about a third of the high ones do not repeat.
test system: ATP; experiment: switch fluorescence ratio, 500 uM ATP over buffer (Cy3 cluster intensity, sum of 5 cycles each) (fold (ratio)); higher = stronger signal-on switching upon ATP binding; sequences stand for … in TCGTCGGCAGCGTCAGATGTGTATAAGAGACAGTTTTTTTTTTTTTTTTTTTTTTTTT…TC; settings: aptamer strand: ATP DNA aptamer (quencher-CACCTGGGGGAGTATTGCGGAGGAAGG + anchor), 100 nM annealed; ATP concentration: 500 uM; one replicate
Summary of the method: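 Clusters with intensities outside 100-1000 RFU were excluded. The remaining Cy3-labelled switching-strand clusters on a modified Illumina MiSeq flow-cell had been annealed to 100 nM quencher-labelled ATP aptamer and imaged in selection buffer, then after 15 min with 500 uM ATP at 22 °C, for five cycles separated by NaOH stripping and re-annealing. The fluorescence ratio, averaged per switch-domain sequence, is each cluster's summed target-cycle Cy3 intensity over its summed buffer-cycle Cy3 intensity.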
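Also: ATP exposure 15 min at 22 °C before imaging.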

Q: How did the switch fluorescence ratio turn out when GGCCTATGAC was run?
A: 1.03

Q: For GGCCTTGCCG, which switch fluorescence ratio is on record?
A: 1.02

Q: How did the switch fluorescence ratio turn out when GGCGAAAGAT was run?
A: 0.977

Q: For GGCGACATC, which switch fluorescence ratio is on record?
A: 1.02

Q: With GGCGACTGG as the sequence, how does the switch fluorescence ratio read?
A: 0.974

Q: Which switch fluorescence ratio does the source give for GGCGATCCCT here?
A: 1

Q: With GGCGATCCGT as the sequence, how does the switch fluorescence ratio read?
A: 0.965

Q: With GGCGATTTAC as the sequence, how does the switch fluorescence ratio read?
A: 1.05

Q: GGCGCAGAGG was tested. Which switch fluorescence ratio did it give?
A: 1.07

Q: How did the switch fluorescence ratio turn out when GGCGCTAAAC was run?
A: 1.12

Q: How did the switch fluorescence ratio turn out when GGCGCTTTTA was run?
A: 0.965

Q: With GGCGGAAGGC as the sequence, how does the switch fluorescence ratio read?
A: 1.01

Q: With GGCGGATTTT as the sequence, how does the switch fluorescence ratio read?
A: 0.97

Q: For GGCGGCCAAG, which switch fluorescence ratio is on record?
A: 0.973

Q: For GGCGGCGGCT, which switch fluorescence ratio is on record?
A: 1.09

Q: With GGCGGCTGGA as the sequence, how does the switch fluorescence ratio read?
A: 1.01

Q: Which switch fluorescence ratio does the source give for GGCGGGCCTG here?
A: 1

Q: GGCGGTCCCC was tested. Which switch fluorescence ratio did it give?
A: 1.02

Q: For GGCGGTGGGC, which switch fluorescence ratio is on record?
A: 1.02

Q: How did the switch fluorescence ratio turn out when GGCGTAAAGC was run?
A: 1.04

Q: Which switch fluorescence ratio does the source give for GGCGTCAATC here?
A: 1.11

Q: With GGCGTGCCGG as the sequence, how does the switch fluorescence ratio read?
A: 0.947

Q: With GGCGTGGGTC as the sequence, how does the switch fluorescence ratio read?
A: 1.06

Q: GGCGTTCCTA was tested. Which switch fluorescence ratio did it give?
A: 1.02

Q: How did the switch fluorescence ratio turn out when GGCGTTGGAG was run?
A: 1.01

Q: For GGCTACAAGG, which switch fluorescence ratio is on record?
A: 0.996

Q: For GGCTACAGTC, which switch fluorescence ratio is on record?
A: 0.984

Q: Which switch fluorescence ratio does the source give for GGCTAGGTTC here?
A: 0.952

Q: Which switch fluorescence ratio does the source give for GGCTCAGTGC here?
A: 0.987

Q: With GGCTCCTGGC as the sequence, how does the switch fluorescence ratio read?
A: 1

Q: GGCTCTCAGC was tested. Which switch fluorescence ratio did it give?
A: 0.969

Q: For GGCTCTCCTT, which switch fluorescence ratio is on record?
A: 0.983

Q: For GGCTGAAAGC, which switch fluorescence ratio is on record?
A: 1.04

Q: With GGCTGAACTG as the sequence, how does the switch fluorescence ratio read?
A: 1.06

Q: How did the switch fluorescence ratio turn out when GGCTGATCTA was run?
A: 0.989

Q: GGCTGCTGGT was tested. Which switch fluorescence ratio did it give?
A: 1.05

Q: For GGCTGGAGCC, which switch fluorescence ratio is on record?
A: 1.01

Q: How did the switch fluorescence ratio turn out when GGCTGGGGTT was run?
A: 1.02

Q: GGCTGGTGTA was tested. Which switch fluorescence ratio did it give?
A: 0.982

Q: With GGCTTAGCGA as the sequence, how does the switch fluorescence ratio read?
A: 1.02

Q: How did the switch fluorescence ratio turn out when GGCTTATCCG was run?
A: 1.02

Q: For GGCTTGGGGG, which switch fluorescence ratio is on record?
A: 1.02

Q: With GGCTTTCCAG as the sequence, how does the switch fluorescence ratio read?
A: 0.972

Q: GGCTTTCGAA was tested. Which switch fluorescence ratio did it give?
A: 0.989

Q: How did the switch fluorescence ratio turn out when GGCTTTCTCC was run?
A: 1.97

Q: With GGCTTTGACA as the sequence, how does the switch fluorescence ratio read?
A: 0.945

Q: Which switch fluorescence ratio does the source give for GGCTTTGCTG here?
A: 1.03

Q: How did the switch fluorescence ratio turn out when GGCTTTGCTT was run?
A: 0.979

Q: For GGCTTTGTAT, which switch fluorescence ratio is on record?
A: 1

Q: GGGAAAATAC was tested. Which switch fluorescence ratio did it give?
A: 1.08

Q: For GGGAAACGGA, which switch fluorescence ratio is on record?
A: 0.987

Q: With GGGAAAGGCT as the sequence, how does the switch fluorescence ratio read?
A: 0.959

Q: Which switch fluorescence ratio does the source give for GGGAAATCAC here?
A: 1.21

Q: GGGAACCGC was tested. Which switch fluorescence ratio did it give?
A: 1.07

Q: How did the switch fluorescence ratio turn out when GGGAAGGAAA was run?
A: 1.05

Q: For GGGAAGGAAC, which switch fluorescence ratio is on record?
A: 1.02

Q: GGGAATACAG was tested. Which switch fluorescence ratio did it give?
A: 0.998

Q: GGGAATAGAC was tested. Which switch fluorescence ratio did it give?
A: 1.03

Q: With GGGAATAGG as the sequence, how does the switch fluorescence ratio read?
A: 0.986

Q: How did the switch fluorescence ratio turn out when GGGACAAAGC was run?
A: 0.99

Q: How did the switch fluorescence ratio turn out when GGGACAGGTC was run?
A: 0.982

Q: Which switch fluorescence ratio does the source give for GGGACATATC here?
A: 1.08

Q: For GGGACATCTG, which switch fluorescence ratio is on record?
A: 0.973

Q: How did the switch fluorescence ratio turn out when GGGACCTCAA was run?
A: 0.98

Q: For GGGAGCACCT, which switch fluorescence ratio is on record?
A: 1.04

Q: For GGGAGGCTGG, which switch fluorescence ratio is on record?
A: 1.06

Q: How did the switch fluorescence ratio turn out when GGGAGGTACA was run?
A: 0.985

Q: For GGGAGGTCCG, which switch fluorescence ratio is on record?
A: 1.11

Q: Which switch fluorescence ratio does the source give for GGGATAGTC here?
A: 0.971

Q: For GGGATATGG, which switch fluorescence ratio is on record?
A: 1.01

Q: For GGGATATTTC, which switch fluorescence ratio is on record?
A: 0.976

Q: Which switch fluorescence ratio does the source give for GGGATCATCT here?
A: 0.987

Q: For GGGATCGGTA, which switch fluorescence ratio is on record?
A: 0.975

Q: How did the switch fluorescence ratio turn out when GGGATCGTCA was run?
A: 1.01

Q: Which switch fluorescence ratio does the source give for GGGATGACTT here?
A: 1.01

Q: Which switch fluorescence ratio does the source give for GGGATGCTTT here?
A: 0.976

Q: For GGGATGTCGT, which switch fluorescence ratio is on record?
A: 1.05

Q: GGGATTACGA was tested. Which switch fluorescence ratio did it give?
A: 1.01

Q: With GGGCAAAGCG as the sequence, how does the switch fluorescence ratio read?
A: 0.988

Q: Which switch fluorescence ratio does the source give for GGGCACAAGA here?
A: 0.999

Q: Which switch fluorescence ratio does the source give for GGGCACCCTG here?
A: 1.03

Q: With GGGCAGAGCG as the sequence, how does the switch fluorescence ratio read?
A: 0.967

Q: With GGGCAGCAGA as the sequence, how does the switch fluorescence ratio read?
A: 1.04

Q: How did the switch fluorescence ratio turn out when GGGCAGCCCC was run?
A: 1.04

Q: GGGCAGGCCT was tested. Which switch fluorescence ratio did it give?
A: 1.02

Q: GGGCATATAT was tested. Which switch fluorescence ratio did it give?
A: 1.07

Q: Which switch fluorescence ratio does the source give for GGGCATCGCT here?
A: 1.02

Q: With GGGCATTACG as the sequence, how does the switch fluorescence ratio read?
A: 1.12

Q: For GGGCATTTGC, which switch fluorescence ratio is on record?
A: 0.976

Q: GGGCCTAGAT was tested. Which switch fluorescence ratio did it give?
A: 0.96

Q: With GGGCCTCTGT as the sequence, how does the switch fluorescence ratio read?
A: 0.967

Q: Which switch fluorescence ratio does the source give for GGGCGAAGAT here?
A: 1

Q: Which switch fluorescence ratio does the source give for GGGCGCATCA here?
A: 0.945

Q: How did the switch fluorescence ratio turn out when GGGCGGCCTC was run?
A: 1.01

Q: How did the switch fluorescence ratio turn out when GGGCGGTTAC was run?
A: 1.12

Q: For GGGCGTACTG, which switch fluorescence ratio is on record?
A: 0.965

Q: GGGCGTCCGG was tested. Which switch fluorescence ratio did it give?
A: 0.947

Q: GGGCTAAACG was tested. Which switch fluorescence ratio did it give?
A: 0.985

Q: Which switch fluorescence ratio does the source give for GGGCTAAGGA here?
A: 0.943

Q: GGGCTAAGTG was tested. Which switch fluorescence ratio did it give?
A: 1.01

Reference: the supplement of paper PMC10126150
